# Measured values published in PubChem BioAssay (NCATS).
# “And” between values parts separate entries of the source, which are not always exact repeats. Equal entries are not always repeated. Inconclusive means that the source gave no clear call. Such entries were picked first, then a sample of the others. For some of these results: Potencies beside an inconclusive call are fits to weak or partial responses and may not hold up. The source made the active and inactive calls. Calls come from the whole dose curve; as a rule, active = well fitted curve in the direction sought with a large enough effect; inconclusive = small, poorly fitted or top-dose-only effect, or another doubt; inactive = no such curve, though single readings can be large; an effect the other way counts as inactive or inconclusive.
# Columns and labels:
# [1] = Primary qHTS for inhibitors of nuclear receptor binding SET domain protein 2 (NSD2) in an RCH-ACV wild type WT cells (2C) (AID 1645877); conditions: activity change, negative = cell killing: at 44.9 µM (top of the series); note: nearly all actives have a fitted effect of over 70% in size; note: potency is the fitted concentration of half-maximal effect
# [2] = Primary qHTS for inhibitors of nuclear receptor binding SET domain protein 2 (NSD2) in an isogenic RCH-ACV NSD2 p.E1099K mutant (9B) (AID 1645876); note: nearly all actives have a fitted effect of over 70% in size; note: potency is the fitted concentration of half-maximal effect
# [3] = test system: Nanoluciferase (engineered Oplophorus gracilirostris luciferase); assay: Primary Nanoluciferase (NLuc) qHTS assay for identification of artifact compounds. (AID 1845222);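 note: NLuc secreted into diluted conditioned medium of S16 cells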
# Outline: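 Using secreted nanoluciferase in S16 culture medium (0.22 um filtered, 1:55 dilution), compounds were preincubated 15 min at RT. Signal was generated with Nano-Glo reagent (1:100) over 5 min.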
# [4] = molecular target: Glutathione peroxidase 1 (Homo sapiens) (UniProt P07203); assay: Primary qHTS Assay for Inhibitors of Recombinant Selenoprotein Glutathione Peroxidase 1 (GPX1) (AID 1845191); conditions: activity, negative = inhibition: at 48.8 µM (top of the series); note: nearly all actives have a fitted effect of over 65% in size; note: potency is the fitted concentration of half-maximal effect
# Outline: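 Recombinant GPX1 (10 nM final) was preincubated with compound for 30 min at room temperature, then reacted with 1 mM GSH, 0.5 mM CHP, 0.5 mM NADPH and 100 nM glutathione reductase; NADPH fluorescence (340/450 nm) was read at 0 and 15 min.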
# [5] = molecular target: Phospholipid hydroperoxide glutathione peroxidase GPX4 (Homo sapiens) (UniProt P36969); assay: Primary qHTS Assay for Inhibitors of Recombinant Selenoprotein Glutathione Peroxidase 4 (GPX4) (AID 1845192); note: potency is the fitted concentration of half-maximal effect; nearly all actives have a fitted effect of over 65% in size
# Outline: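 GR-coupled readout: 100 nM GR, 1 mM GSH, 0.5 mM NADPH; NADPH fluorescence (ex 340/em 450 nm) read at t=0 and after 15 min RT. GPX4 200 nM, preincubated 30 min with compound; substrate 0.5 mM CHP.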
# [6] = molecular target: Luciferin 4-monooxygenase (Photinus pyralis) (UniProt P08659); assay: Primary firefly luciferase (FLuc) qHTS assay for identification of artifact compounds. (AID 1845220); note: potency is the fitted concentration of half-maximal effect; nearly all actives have a fitted effect of over 60% in size
# Outline: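 In this counter-screen for luciferase artifacts, test compounds met substrate (10 uM each luciferin and ATP) before 10 nM enzyme started the reaction. Light output was measured 5 min later.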
# [7] = Primary fluorescence-based thiol-reactive (MSTI) qHTS assay for identification of artifact compounds. (AID 1845221); note: potency is the fitted concentration of half-maximal effect;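 note: thiol-reactive compounds lower the probe fluorescence signal; nearly all actives have a fitted effect of over 65% in size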
# Outline: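 A multi-concentration qHTS design tested compounds against 4 uM MSTI, pH 7.4 phosphate-buffered saline. Plates were protected from light for 1 h at room temperature before imaging fluorescence.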
# Tags give direction and shape of the fitted curve.
# Sequence of UniProt P07203 (P07203 whole entry, looked up): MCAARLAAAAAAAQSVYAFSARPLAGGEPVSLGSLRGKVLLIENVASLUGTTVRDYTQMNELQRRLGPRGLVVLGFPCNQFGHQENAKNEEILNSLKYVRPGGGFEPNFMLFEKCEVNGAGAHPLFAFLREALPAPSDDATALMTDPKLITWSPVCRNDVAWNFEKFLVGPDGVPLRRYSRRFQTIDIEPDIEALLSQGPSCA
# Sequence of UniProt P36969 (P36969 whole entry, looked up): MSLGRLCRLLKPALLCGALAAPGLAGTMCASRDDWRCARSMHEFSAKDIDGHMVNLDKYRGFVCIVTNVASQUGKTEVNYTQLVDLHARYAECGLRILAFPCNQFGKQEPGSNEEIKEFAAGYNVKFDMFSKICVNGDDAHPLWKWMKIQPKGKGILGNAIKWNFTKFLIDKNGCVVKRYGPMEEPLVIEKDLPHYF
structure (smiles),measurement,setting,value
CC[C@H](CC#N)OC(=O)N[C@@H](C)c1cccc(NC(=O)Nc2ccc(-c3cnco3)c(OC)c2)c1,Potency,[1],"inconclusive: 0.148 µM [inhibitor, full curve, poor fit]"
O=C(Nc1nnc(-c2ccco2)o1)c1cc(-c2ccccc2)nc2ccccc12,Potency,[1],active: 13.2 µM
CNC(=O)c1cc(Oc2ccc(NC(=O)Nc3ccc(Cl)c(C(F)(F)F)c3)cc2)ccn1,Potency,[1],"inconclusive: 15 µM [inhibitor, partial curve, poor fit]"
CC(C)CC(=O)Nc1n[nH]c2c1CN(C(=O)C1CCN(C)CC1)C2(C)C,Potency,[2],active: 129 nM and active: 662 nM
same,Potency,[3],inactive
CCOC(=O)c1ccc(C#Cc2ccc3c(c2)C(C)(C)CCS3)nc1,Potency,[2],"inconclusive: 23.7 µM [inhibitor, partial curve, poor fit]"
same,Potency,[4],"inconclusive: 20.2 µM [inhibitor, single point]"
same,Potency,[5],"inconclusive: 11.4 µM [inhibitor, partial curve]"
CO[C@@H]1C(N(C)C(=O)c2ccccc2)C[C@H]2O[C@]1(C)n1c3ccccc3c3c4c(c5c6ccccc6n2c5c31)C(=O)NC4=O (some centres not stated),Potency,[2],active: 1.66 µM
same,Potency,[5],active: 18 µM
CN(C)c1nc(Cc2ccc(NC(=O)c3ccc4ccccc4c3)cc2)nc(Cl)c1CC(=O)O,Potency,[2],inactive
same,Potency,[6],"inconclusive: 37.9 µM [inhibitor, single point]"
CCOC(=O)N1c2ccc(C(F)(F)F)cc2[C@@H](N(Cc2cc(C(F)(F)F)cc(C(F)(F)F)c2)C(=O)OC)C[C@H]1CC,Potency,[2],inactive
same,Potency,[4],inactive
Cc1cc(-c2ncc(CC(=O)Nc3ccc(-c4cnccn4)cn3)cc2C)ccn1,Potency,[2],"inconclusive: 6.49 µM [inhibitor, partial curve]"
same,Potency,[7],inactive
CNC(=O)c1ccc2c(C(=Nc3cccc(CN(C)C)c3)c3ccccc3)c(O)[nH]c2c1,Potency,[1],"inconclusive: 20.5 µM [inhibitor, single point]"
CCCCCN(CCC12CC3CC(CC(C3)C1)C2)C(=O)NCCCc1ccncc1,Potency,[2],"inconclusive: 18.6 µM [inhibitor, partial curve]"
same,Potency,[7],"inconclusive: 37.7 µM [inhibitor, single point]"
Cc1cccc(-c2[nH]c(C(C)(C)C)nc2-c2ccc3c(c2)OCO3)n1,Potency,[1],active: 4.11 µM and active: 4.17 µM
COc1ccccc1-c1cccc(-c2c(O)c3cc(C#N)c(Cl)cc3[nH]c2=O)c1,Potency,[2],inactive
same,Potency,[5],"inconclusive: 20.2 µM [inhibitor, single point]"
CN(C)C(=O)COC(=O)Cc1ccc(OC(=O)c2ccc(N=C(N)N)cc2)cc1,Potency,[1],inactive
COc1ccc(CCN2CCN(CCCc3ccccc3)CC2)cc1OC,Potency,[2],inactive
same,Potency,[7],inactive
C[C@H](O)[C@@H]1C(=O)N2C(C(=O)O)=C(S[C@@H]3CN[C@H](CNS(N)(=O)=O)C3)[C@@H](C)[C@@H]12,Potency,[2],inactive
same,Potency,[7],"inconclusive: 10.6 µM [inhibitor, partial curve]"
CC1(C)O[C@H]2CC(=O)OC[C@]23[C@H]2CC[C@@]4(C)[C@H](c5ccoc5)OC(=O)[C@H]5O[C@]54[C@]2(C)C(=O)C[C@@H]13,Potency,[1],inactive
CCCCC(F)(F)[C@@]1(O)CC[C@H]2[C@H](CC(=O)[C@@H]2CCCCCCC(=O)O)O1,Potency,[2],"inconclusive: 1.18 µM [inhibitor, full curve] and inconclusive: 916 nM [inhibitor, full curve]"
same,Potency,[3],inactive
CC(C)(C)c1cc(C(C)(C)C)c(NC(=O)c2c[nH]c3ccccc3c2=O)cc1O,Potency,[2],active: 14.8 µM
same,Potency,[5],"inconclusive: 18 µM [inhibitor, partial curve] and active: 17.8 µM"
CCC(=O)N1CCN(c2ccc(-n3c(=O)ccc4cnc5ccc(-c6cnc7ccccc7c6)cc5c43)cc2C(F)(F)F)CC1,Potency,[1],active: 13.3 nM and active: 20.4 nM
Cc1ccc(S(=O)(=O)N[C@@H](Cc2ccccc2)C(=O)CCl)cc1,Potency,[1],active: 11.8 µM
CN1CCN(c2c(F)cc3c(=O)c(C(=O)O)cn(CCF)c3c2F)CC1,Potency,[1],"inconclusive: 33.5 µM [inhibitor, partial curve, poor fit]"
CC[C@H](C)C(=O)O[C@H]1C[C@@H](C)C=C2C=C[C@H](C)[C@H](CC[C@@H]3C[C@@H](O)CC(=O)O3)[C@H]21,Potency,[2],"inconclusive: 7.09 µM [inhibitor, partial curve, poor fit]"
same,Potency,[5],"inconclusive: 32.1 µM [inhibitor, single point]"
